# Source: the supplement of paper PMC10986608
# This is one part of the list. Many values rest on one well or one pass, so single values are uncertain.
# Test system: Candida albicans DPL-15
# Assay: growth (OD600) after compound treatment (apparently relative to screen median) (relative growth (fraction; screen median 1.02)); DPL-15 is a caspofungin-resistant clinical isolate; higher = more fungal growth (less antifungal activity)
# Conditions: 25 µM; RPMI 1640; 48 h; 30 °C
row,SMILES,growth
1,COCc1nn(Cc2ccccc2)c2c1C(c1ccccc1)NC2=O (stereo not given),0.927
2,COCc1n[nH]c2c1C(c1ccccc1)N(Cc1ccccc1)C2=O (stereo not given),0.947
3,C=C(C)[C@@H]1[C@H](c2cc(OC)c(O)c3oc4c(C)cccc4c(=O)c23)C=C(C)C[C@H]1c1cc(OC)c(O)c2oc3c(C)cccc3c(=O)c12,1.01
4,COc1ccc(N2C(=O)c3c(c(C)nn3C)C2c2ccc(Br)cc2)cc1 (stereo not given),0.908
5,COc1ccc([C@]23Oc4cc(OC)cc(OC)c4[C@@]2(O)c2nc(-c4ccc(C)cc4)[nH]c(=O)c2[C@@H]3c2ccccc2)cc1,0.959
6,CC(C)(O)Cn1nc2cc1COC[C@H](c1ccccc1)NC(=O)CC1(CCCCC1)CNC(=O)c1cccc-2c1,1.09
7,COC(=O)C1=C(C)N(Cc2cccc(C(F)(F)F)c2)C(NCc2ccc3c(c2)OCO3)=NC1c1ccc(Cl)cc1 (stereo not given),0.986
8,Cc1cc(C)cc(-n2nc(CC(C)C)c3c2C(=O)NC3c2cccc(C(F)(F)F)c2)c1 (stereo not given),0.925
9,CC(C)(C)[Si](C)(C)O[C@H]1C=C2COS(=O)O[C@H]2[C@H]2O[C@H]21 (stereo not given in full),0.922
10,COc1ccc(C(=O)Cl)cc1I,0.955
11,COc1ccc(CCn2ccc(Nc3cc(C(=O)N4Cc5ccccc5C4)c(O)cc3O)n2)cc1,0.94
12,Cc1ccc(C2NC(=O)c3nn(-c4ccc(OC(F)(F)F)cc4)c(-c4ccccc4)c32)cc1 (stereo not given),1.02
13,COC[C@H]1O[C@H](c2ccccc2)C=C[C@@H]1OCC#Cc1cc([N+](=O)[O-])ccc1N,0.888
14,O=c1c(O)c(-c2ccc(O)cc2O)oc2cc(O)cc(O)c12,0.954
15,C#CCN(CCOC)C(=O)c1nnc2c3cc(C)ccc3n(S(=O)(=O)c3ccc(OC)cc3)c2n1,1.08
16,COc1ccc(OC)c2c(=O)n(C)c(C)cc12,1.15
17,CCCCC1=CC2=C(OC(C)=O)C(=O)C(C)(OC(=O)CC)C(=O)C2=CO1 (stereo not given),0.933
18,CC(C)Cc1n[nH]c2c1C(c1ccc(F)cc1)N(c1ccc3c(c1)OCO3)C2=O (stereo not given),0.924
19,COc1ccc([C@@]23Oc4cc(OC)cc(OC)c4[C@]2(O)c2nc(-c4cccc(OC)c4)[nH]c(=O)c2[C@H]3c2ccccc2)cc1,0.966
20,CCOc1ccc(C2NC(=O)N3CCC=CC3=C2C(C)=O)c(F)c1F (stereo not given),0.864
21,CCC[C@]12Cc3cc(OC)c(OC)cc3[C@H](O1)c1c(c3ccccc3n(C)c1=O)O2,0.912
22,CO/C(=C\c1cc2c(C(=O)OC(C)(C)C)c(O)cc(OC)c2o1)CC(C)=O,1.09
23,CC(=O)C1=C2NCCN2C(=O)CC1c1cccc(F)c1 (stereo not given),1.17
24,CC(C)CC1=NCCNC2=C1C(c1ccccc1)NC2=O (stereo not given),1.02
25,COC(=O)[C@@H]1[C@@H](c2ccccc2)[C@]2(c3ccc(OC)cc3)Oc3cc(OC)cc(OC)c3[C@@]23NC(C2CCN(C(=O)OC(C)(C)C)CC2)=N[C@@]13O,0.769
26,COC(CC[C@]1(C)[C@H]2CC[C@@H]3[C@H]4[C@H](C(C)C)CC[C@]4(COC(C)=O)CC[C@@]3(C)[C@]2(C)CC[C@H]1C(C)=O)OC,1.06
27,CC(C)c1c2c(nn1C)C(=O)N(c1ccccc1)C2c1ccccc1 (stereo not given),0.915

row,SMILES,growth
1,C=CCC1CC2=C(OC)C(CC=C)(CC=C)C(=O)C(C(=O)c3ccccc3)=C2OC1(C)C (stereo not given),1.06
2,COC(=O)C1=C(C)N(Cc2ccccc2)C(=S)NC1c1ccc(Cl)cc1 (stereo not given),0.87
3,Cn1nccc1Nc1cc(O)cc(O)c1C(=O)N1CC2CC2C1 (stereo not given),1.06
4,COc1ccc(C2NC(=O)N3CCC=CC3=C2C(C)=O)cc1 (stereo not given),1
5,CC(=O)C1=C2C=CCCN2C(=O)NC1c1cccc(F)c1C (stereo not given),0.919
6,C#CCCN1N=C(SC)[C@@H]2N(Cc3ccccc3)c3ccccc3[C@@]23CC(=O)N=C13,0.961
7,COc1ccc2c(c1)[C@@H](NCC=C(C)C)[C@H](C)[C@H]2c1ccccc1,1.08
8,COC(=O)C1=C(C)N(C)C(NCc2ccc(C(F)(F)F)cc2)=NC1c1cccc(Cl)c1 (stereo not given),1.08
9,CCCCN[C@@]12C(=O)[C@H](C(=O)OC)[C@@H](c3ccccc3)[C@]1(c1ccc(OC)cc1)Oc1cc(OC)cc(OC)c12,0.937
10,O=P1(O)Oc2c(-c3ccccc3)cc3ccccc3c2-c2c(c(-c3ccccc3)cc3ccccc23)O1,1.31
11,Cc1ccc(C2C3=C(NC(C)(C)CN=C3CC(C)C)C(=O)N2c2ccccc2)cc1 (stereo not given),1.02
12,CC1(C)CNC(=O)CC(O)CNC(=O)c2cccc(c2)-c2cc(n[nH]2)C1 (stereo not given),1.05
13,COc1cccc(C2NC(=S)N(C)C(C)=C2C(C)=O)c1 (stereo not given),1.03
14,Cn1c(-c2ccc(N3CCOCC3)cc2)c(O)c(=O)c2ccccc21,1.08
15,COc1ccc(N2C(=O)c3[nH]nc(CC(C)C)c3C2c2c(Cl)cccc2Cl)cc1F (stereo not given),0.904
16,COC(=O)c1cc2c(c3c4cc(F)ccc4n(S(=O)(=O)c4ccccc4)c13)C(=O)N(Cc1cccc(F)c1)C2,1.11
17,COC(=O)CC#C[C@@H](C)[C@H](NS(=O)(=O)c1ccc(C)cc1)C(C)(C)C,1.16
18,CCOC(=O)N1c2ccc(OC)cc2C=CC1/C=C/c1cccc(F)c1 (stereo not given),1.04
19,C=CCCC(=O)NCc1ccc(O)c(OC)c1,1.06
20,Cn1nc(C2CCCCC2)cc1Nc1cc(O)cc(O)c1C(=O)N1Cc2ccccc2C1,0.971
21,COc1ccc(N2C(=O)c3[nH]nc(CC(C)C)c3C2c2cccc(OC)c2)cc1 (stereo not given),1.26
22,O=C(/C=C/c1cccnc1)c1ccccc1O,1
23,O=C1c2[nH]nc(-c3ccccc3)c2C(c2ccccc2)N1c1ccccc1 (stereo not given),1.02
24,COC(=O)C1=C(C)N(Cc2ccccc2Cl)C(=S)NC1c1cccc(Cl)c1 (stereo not given),0.72
25,COc1ccc2c(=O)c3c(F)cccc3oc2c1OCC=C(C)C,1.15
26,C=CCN1C(=O)C2=C(C(c3ccccc3)=NCCN2C)C1c1cccc(C(F)(F)F)c1 (stereo not given),0.995
27,COC(=O)C1=C(C)N(Cc2ccc(Cl)cc2)C(=S)NC1c1ccccc1Cl (stereo not given),0.973

row,SMILES,growth
1,COC(=O)c1nnc(C(=O)NCc2ccccc2)c2[nH]c3ccccc3c12,1.18
2,COc1oc(C)cc(=O)c1-c1ccc(Br)cc1,1.02
3,COC(=O)C1=C(C)N(C)C(NCc2ccccc2C(F)(F)F)=NC1c1ccccc1 (stereo not given),0.954
4,COC(=O)c1[nH]c2ccccc2c1[C@]12CCN(C(=O)Cc3cccc(F)c3F)[C@H]1Nc1ccccc12,1.01
5,COc1ccc(S(=O)(=O)N2CCCc3nc(-c4ccc(Br)cc4)ccc32)cc1,0.965
6,CC(=O)OC[C@H]1O[C@H](C#Cc2cc(C)cc(C)c2)C=C[C@@H]1OC(C)=O,0.724
7,COC(=O)CC/C=C/[C@@]12Oc3cc(OC)c4c(C)cc(O)c5c4c3[C@H](OC5=O)[C@@H]1C[C@@H](C)O2,1.03
8,CCOC(=O)CN1C(=O)N[C@H](c2ccc(Br)cc2)C(C(C)=O)=C1C,0.957
9,O=C1C2=C(C(c3ccccc3)=NCCN2)C(c2ccccc2)N1Cc1ccccc1 (stereo not given),0.878
10,COC(=O)[C@@H]1[C@@H](c2ccccc2)[C@]2(c3ccc(OC)cc3)Oc3cc(OC)cc(OC)c3[C@@]23NC(C2CCCCC2)=N[C@@]13O,0.889
11,COc1ccc2c(c1)[C@@H](NS(=O)(=O)c1c(C)noc1C)[C@H](C)[C@H]2c1ccccc1,0.946
12,CC(=O)C1=C(C)Oc2ccccc2[C@@H]1c1ccccc1,0.972
13,CC(=O)N[C@@H]1[C@@H](C)[C@H](OCc2ccccc2)[C@]23C=CC=C[C@H]2[C@]13CCN1CCOCC1,1.29
14,CC(C)Cc1n[nH]c2c1C(c1ccc(F)cc1)N(CC(C)(CO)CO)C2=O (stereo not given),0.91
15,O=C1c2ccccc2[C@@H](c2ccccc2)[C@@H]1CCCO,0.986
16,CC(C)CCc1cc(OCC(N)=O)cc2oc3ccccc3c(=O)c12,1.05
17,COc1ccc([C@H]2C[C@@H](c3ccccc3)c3cc4c(cc3O2)OCO4)cc1,0.897
18,CC(=O)C1=C(C)N(Cc2ccc(Cl)cc2)C(=S)NC1c1ccccc1Br (stereo not given),0.948
19,O=S(=O)(c1ccccc1)N1CCCc2nc(-c3ccc(F)cc3)ccc21,0.839
20,CO[C@@H]1CCN(C(=O)c2c(O)cc(O)cc2Nc2ccnn2C)C1,1.05
21,C=CC[C@H]1C[C@@]23C[C@H](CC=C)C(C)(C)[C@@](CC=C)(C(=O)C(C(=O)c4ccccc4)=C2OC1(C)C)C3=O,0.941
22,CC(C)n1cc(Nc2cc(O)cc(O)c2C(=O)N2CC[C@@H](N(C)C)C2)cn1,1.09
23,COc1cc(OC)c2c(c1)O[C@@]1(c3ccc(OC)c(O)c3)[C@H](c3ccccc3)[C@@H](C(=O)N(C)OC)[C@@H](O)[C@@]21O,1.05
24,CC1(C)CNC(=O)C(O)CNC(=O)c2cccc(c2)-c2[nH]ncc2C1 (stereo not given),1.13
25,COc1ccc(C[C@H]2CO[C@H](c3ccc(OC)cc3)[C@H]2CO)cc1,1.01
26,COc1ccc(-c2oc3cc(OC)cc(OC)c3c(=O)c2OCC#Cc2ccccc2)cc1,0.953
